# Measurements from paper PMC4336329 (PLoS ONE, 2015).
# Out of some 310,000 compounds screened, about 14,000 (4.5%) showed an effect of 50% or more. The effect is printed as a negative number. Some of the results follow. Where a SMILES comes first, the peptide text is derived from it. [ ]: non-standard residue; d: D form. The star is where a group is joined. ξ: configuration not given here. ξArg(NO2) = N=C(NCCCC(N)C(=O)O)N[N+](=O)[O-]; Bz = O=C(c1ccccc1)*
# Target: human ether-à-go-go-related gene (hERG) potassium channel (human, UniProt Q12809)
# Sequence (Q12809 whole entry, looked up): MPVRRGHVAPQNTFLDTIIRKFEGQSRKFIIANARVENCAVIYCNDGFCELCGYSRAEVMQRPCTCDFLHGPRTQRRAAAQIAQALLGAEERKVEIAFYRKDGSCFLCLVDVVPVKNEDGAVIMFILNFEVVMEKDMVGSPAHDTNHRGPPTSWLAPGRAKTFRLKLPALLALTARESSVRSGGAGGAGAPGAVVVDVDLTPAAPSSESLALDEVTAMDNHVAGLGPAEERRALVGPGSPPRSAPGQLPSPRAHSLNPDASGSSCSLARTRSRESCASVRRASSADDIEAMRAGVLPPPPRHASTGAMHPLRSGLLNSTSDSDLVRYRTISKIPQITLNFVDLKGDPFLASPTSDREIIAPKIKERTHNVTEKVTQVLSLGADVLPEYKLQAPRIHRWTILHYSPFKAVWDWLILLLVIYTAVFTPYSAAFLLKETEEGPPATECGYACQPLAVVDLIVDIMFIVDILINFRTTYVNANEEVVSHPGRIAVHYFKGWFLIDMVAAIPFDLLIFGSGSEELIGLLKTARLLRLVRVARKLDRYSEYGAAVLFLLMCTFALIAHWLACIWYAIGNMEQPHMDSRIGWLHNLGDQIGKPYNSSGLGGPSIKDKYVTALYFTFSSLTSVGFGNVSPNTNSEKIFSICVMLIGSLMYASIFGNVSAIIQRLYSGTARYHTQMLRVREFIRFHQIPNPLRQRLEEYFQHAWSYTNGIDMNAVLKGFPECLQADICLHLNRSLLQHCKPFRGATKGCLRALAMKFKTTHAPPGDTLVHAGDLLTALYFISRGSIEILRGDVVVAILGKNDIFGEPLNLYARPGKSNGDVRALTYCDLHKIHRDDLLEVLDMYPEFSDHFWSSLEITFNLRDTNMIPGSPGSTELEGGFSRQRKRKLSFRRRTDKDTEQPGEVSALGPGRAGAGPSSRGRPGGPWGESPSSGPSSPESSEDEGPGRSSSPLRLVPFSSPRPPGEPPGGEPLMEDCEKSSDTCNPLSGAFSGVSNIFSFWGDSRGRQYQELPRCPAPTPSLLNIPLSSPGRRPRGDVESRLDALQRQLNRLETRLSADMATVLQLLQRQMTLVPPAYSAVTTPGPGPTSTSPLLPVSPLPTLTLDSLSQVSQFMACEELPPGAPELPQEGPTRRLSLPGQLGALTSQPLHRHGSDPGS
# Experiment: primary screen, population patch clamp on CHO cells stably expressing hERG
# 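Note: peak tail current of the secondary pulse compared with the same well before compound.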
row,Compound,"hERG current change (%, negative = inhibition) at 10uM [%]"
1,COc1ccc(OC)c(S(=O)(=O)N/N=C\c2cn(CC(N)=O)c3ccccc23)c1,22.3
2,Cc1nn(S(=O)(=O)c2ccc(Cl)cc2)c(C)c1S(=O)(=O)N1CCOCC1,20.9
3,COc1ccc(C(=O)n2nnc3ccccc32)cc1OC,13.3
4,CN(C)CCCNc1oc(-c2ccc(Cl)cc2)nc1C#N,-37.6
5,O=C(Nc1ccncc1)C1CCN(S(=O)(=O)c2cccc(C(F)(F)F)c2)CC1,-42.8
6,COc1ccc(/C=c2\sc3nc(-c4ccccc4OC)nn3c2=O)c(OC)c1,9.67
7,Cc1ccc(C)c(S(=O)(=O)N2CCN(CC(=O)NC(C)c3ccccc3)CC2)c1 (stereo not drawn),-2.33
8,CCCN(C(=O)C(NC(=O)c1ccccc1)C(C)C)c1c(N)n(Cc2ccccc2)c(=O)[nH]c1=O (stereo not drawn),-7.5
9,CC(=O)c1cccc(NS(=O)(=O)c2cc(-c3cnc(C4CC4)o3)ccc2C)c1,15.5
10,CCOC(=O)C1=C(C)n2c(s/c(=C3\C(=O)Nc4ccccc43)c2=O)=NC1c1ccc(OC)cc1 (stereo not drawn),7.77
11,C=CCNc1nc(SC)nc2ccsc12,-0.806
12,CN(C)NC(=O)c1ccc([N+](=O)[O-])s1,16.8
13,CCCNC(=O)c1ccccc1NC(=O)c1ccc2c(c1)NC(=O)C(C)S2 (stereo not drawn),-10.9
14,COc1cc([N+](=O)[O-])ccc1NC(=O)C[n+]1ccccc1C.[Cl-],11
15,CN(C(=S)NC(=O)c1ccccc1)C1CCCCC1,8.82
16,CCO[C@@H]1OC(C(=O)NCc2ccccc2)=C[C@H](c2cn(C(C)=O)c3ccccc23)[C@H]1CCCO,-82.9
17,N/C(=N\[N+](=O)[O-])NCCCC(NC(=O)CNC(=O)c1ccccc1)C(=O)O (stereo not drawn) (Bz-Gly-[ξArg(NO2)]-OH),7.25
18,CCCCN1C(=O)C(=O)N(CC(=O)c2ccc[nH]2)C1=O,9.85
19,COc1ccc(NC(=O)CSc2ncn[nH]2)c([N+](=O)[O-])c1,-4.71
20,O=C(NCCc1ccncc1)Nc1ccc(Cl)cc1,-25.9
21,O=C(NCC1CCCO1)c1nc2c(nnn2Cc2ccccc2Cl)c(=O)[nH]1 (stereo not drawn),-0.506
22,Cc1ccc(Cl)c2c1NC(=O)C2(O)CC(=O)c1ccc(F)cc1 (stereo not drawn),-4.92

row,Compound,"hERG current change (%, negative = inhibition) at 10uM [%]"
1,COc1cc(CCC(=O)OCC(=O)Nc2ccccc2OC(F)F)cc(OC)c1OC,16.4
2,Cn1ncc([N+](=O)[O-])c1C(=O)Nc1ccccc1,8.52
3,OCC[C@@H]1C[C@@H](O)[C@H](O)[C@@]2(Cc3ccccc3CO2)O1,10.9
4,COc1ccc(-c2nc(CS(=O)(=O)CC(=O)NCCc3ccccc3)c(C)o2)cc1,14
5,Cc1cccc2nc(=S)n(C(=O)c3ccco3)n12,10.7
6,CCOc1ccc(-c2nnn(CC(=O)c3cc(OC)ccc3OC)n2)cc1,-7.91
7,N#Cc1c2n(c(=S)n(-c3ccc(OC(F)F)cc3)c1=O)CCCCC2,-23.4
8,CCOc1cc(N2CCOCC2)c(OCC)cc1NC(=S)NCCCOC,4.57
9,Cc1ccc(C(=O)NCCc2sc(C)nc2C)cc1,24
10,COC(=O)c1sccc1NS(=O)(=O)c1ccccc1,20.2
11,CS(=O)(=O)Nc1ccc(S(=O)(=O)Nc2nccs2)cc1,19.1
12,O=C(COC(=O)c1ccccc1NCCO)Nc1cc(C(F)(F)F)ccc1N1CCOCC1,-60.2
13,Cc1cc(C(=O)COC(=O)CNS(=O)(=O)c2ccc3ccccc3c2)c(C)n1-c1ccccc1,20.5
14,CCN(Cc1cc(=O)n2cc(Cl)c(C)c(Cl)c2n1)Cc1nc2ccccc2c(=O)[nH]1,-31.9
15,O=C(CSc1ccccc1)Nc1nnc(COc2ccc(Cl)cc2)s1,-4.39
16,O=C(O)CCC(=O)Nc1ccccc1C(=O)NCc1ccco1,25.2
17,COc1cc(CNc2ncc(-c3ccc(Br)cc3)n2C)cc(OC)c1O.O=C(O)C(=O)O,-60.5
18,Cc1ccc(SCCNCc2ccco2)cc1.Cl,-3.01
19,CC(=O)/C(N=Nc1ccc(OC(F)(F)F)cc1)=C(\C)O,4.69
20,CCOC(=O)N1CCN(C(=O)c2ccc(NS(C)(=O)=O)cc2)CC1,-5.65
21,CCOC(=O)N1CCN(S(=O)(=O)c2ccc(C(=O)Nc3sc4c(c3C(N)=O)CC(C)(C)NC4(C)C)cc2)CC1,20.3
22,O=C1CCC(C(=O)N2CCN(c3cnccn3)CC2)CN1CCc1cccc(F)c1 (stereo not drawn),-25.7

row,Compound,"hERG current change (%, negative = inhibition) at 10uM [%]"
1,Nc1nc2ncc(-c3ccsc3)c(N)n2n1,-31.3
2,CC(C)CCC1(CCNC(C)c2cccs2)CCOC(C)(C)C1 (stereo not drawn),-7.73
3,CCN1CCCC1CN(Cc1cc2ccc(C)cc2[nH]c1=O)C(=S)Nc1ccc(OC)cc1 (stereo not drawn),25.3
4,CCN(CC)S(=O)(=O)c1ccc(NC2c3ccccc3C(=O)N2Cc2ccc3c(c2)OCO3)cc1 (stereo not drawn),-0.55
5,NNC(=O)CN1C(=O)CN=C(c2ccccc2)c2cc(Br)ccc21,-5.51
6,N/C(=N\OC(=O)c1csnn1)c1ccc(C(F)(F)F)cc1,4.62
7,CC(C)(C)NC(=O)CN(C(=O)c1snc(C(=O)NC2CCCCC2)c1N)c1ccc(F)cc1,-8.06
8,Fc1ccc(Nc2nnc(C(F)(F)F)s2)cc1Cl,10.2
9,Cc1ccc(N2C(=O)C3CC(c4ccccc4)=C4C5C=CC(C6C(=O)N(c7ccc(C)cc7C)C(=O)C56)C4C3C2=O)c(C)c1 (stereo not drawn),7.82
10,Cc1nc(OCC(=O)c2ccc(Cl)cc2)c(C#N)c2c1COC(C)(C)C2,5.74
11,COc1ccc(-c2noc(CCCC(=O)NC3CCCC3)n2)cc1,2.23
12,C#CCSc1nnc(-c2ccc(C)cc2)o1,-11.9
13,CCOC(=O)c1cc(-c2csc(COc3ccccc3Cl)n2)on1,-21.1
14,O=C(CS(=O)(=O)c1ccccc1)NCc1ccccc1,-19.5
15,O=C(C1CCN(Cc2cc(Cl)ccc2O)CC1)N1CCN(Cc2ccccc2)CC1.O=C(O)C(=O)O,-45
16,COc1cc(SC)ccc1C(=O)NCCOc1c(C)cc(C)cc1C,-6.52
17,COCCNc1nc2nonc2nc1N1C[C@H]2CC[C@H]1C2,0.934
18,CCOC(=O)c1cccc(NC(=O)CCNS(=O)(=O)c2cc(Br)cnc2N)c1,18.2
19,O=C(O)C1C2CCC(O2)C1C(=O)NCCC1=CCCCC1 (stereo not drawn),3.45
20,Cc1ccc(NS(=O)(=O)c2ccc3c(c2)NC(=O)CC(=O)N3)cc1C,23.4
21,CN(C(=O)c1ccc(S(=O)(=O)c2cccc(Cl)c2)c([N+](=O)[O-])c1)C1CCCCC1,-20.8
22,CC(C)(C)C(=O)NC(=S)N1CCc2ccccc21,-2.06

row,Compound,"hERG current change (%, negative = inhibition) at 10uM [%]"
1,CCOc1ccc(OCCSc2nnnn2C2CCCCC2)cc1,-9.13
2,O=C(NC1CCCCC1)C(c1ccc(F)cc1)N(Cc1ccco1)C(=O)c1ccccn1 (stereo not drawn),6.46
3,CCOc1cc(CNC(C)(C)CO)cc(Br)c1OCc1ccc(Cl)cc1Cl,-12.1
4,C=C(C)Cn1c(NCCOC)nc2c1c(=O)[nH]c(=O)n2C,9.81
5,COc1ccc(CCC(=O)Nc2cc(S(=O)(=O)N3CCCCC3)ccc2N(C)C)cc1,-27.8
6,Cc1ccc(Nc2nc(-c3cccnc3)cs2)cc1C,24.1
7,CCOC(=O)/C=C/S(=O)(=O)c1ccc(NC(C)=O)cc1,0.279
8,CC1(C)NC(=O)N(CC(O)CNC23CC4CC(CC(C4)C2)C3)C1=O (stereo not drawn),8.37
9,CCOC(=O)NC(=O)COC(=O)CNC(=O)c1ccc(OCC)c(OCC)c1,8.47
10,Cc1[nH]c2ccccc2c1C(=O)C(=O)N1CCN(c2ccccc2F)CC1,-18.3
11,COc1cc2nc(C3CCC3)n(NC(=O)C3CCC3)c(=O)c2cc1OC,13.2
12,CC(C)NS(=O)(=O)c1ccc(OCC(=O)N2CCc3ccccc3C2)cc1,9.49
13,O=C(CN1C(=O)C2C3CCC(C3)C2C1=O)OCC(=O)c1ccc(Br)cc1 (stereo not drawn),-16.5
14,CCCNC(=O)CSc1nccn1Cc1ccco1,0.203
15,Cc1ccc(C(=O)NC(C)c2ccc(-n3ccnc3)cc2)cc1 (stereo not drawn),-54
16,COc1cc(-c2nnc(NC(=O)CS(=O)(=O)c3ccc(C)cc3)o2)cc(OC)c1OC,22.2
17,CCOC(=O)Cn1cnc2c(nnn2-c2cccc(Cl)c2)c1=O,-15.2
18,Cc1ccc(-c2nnn(CC(=O)N3CCCc4ccccc43)n2)cc1,-16.7
19,CN(C)NC1CCS(=O)(=O)C1.Cl (stereo not drawn),18.7
20,COc1ccc(S(=O)(=O)N(C)CC(=O)Nc2ccc3c(c2)OCCO3)cc1,3.73
21,Cc1nnc(SCC(=O)N2CCC(C(N)=O)CC2)s1,13.5
